Source: the supplement of paper PMC12582362
Counter-ions that a name gives are not always drawn. Among all 1,500 compounds or so, about 30 (2%) showed activity.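 The calls were made as follows: active = robust z-score below -2; a few such results were not called.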 This is one part of the list.

system: optoTopBP1 Flp-In 293 T-REx (HEK293) cells; assay: light-induced TopBP1 condensate (nuclear foci) count, plate-normalised robust z-score vs non-control wells; higher = more TopBP1 condensates (negative = condensation inhibitor), active = hit call of the paper; conditions: 10 µM; incubation time 2 h

Compound | light-induced TopBP1 condensate (z-score)
CCOC(=O)/C=C(C)/C=C/C=C(C)/C=C/c1c(C)cc(OC)c(C)c1C [Etretinate] | inactive: -0.968
C=CCOc1ccccc1OCC(O)CNC(C)C (centres undefined) [Oxprenolol hydrochloride] | inactive: 0.694
NC[C@H]1O[C@H](O[C@H]2[C@H](O)[C@@H](O[C@H]3O[C@H](CO)[C@@H](O)[C@H](N)[C@H]3O)[C@H](N)C[C@@H]2N)[C@H](N)C[C@@H]1O [Tobramycin] | inactive: -0.114
Cc1c(N)c(=O)n(-c2ccccc2)n1C [Ampyrone] | inactive: 1.23
CCN(CCCCOC(=O)c1ccc(OC)c(OC)c1)C(C)Cc1ccc(OC)cc1 (centres undefined) [Mebeverine hydrochloride] | inactive: -1.13
CCN(CC)C(=O)C1(c2ccccc2)CC1CN (centres undefined) [Milnacipran hydrochloride] | inactive: -1.42
Cc1cc(C(C)(C)C)cc(C)c1CC1=NCCN1 [Xylometazoline hydrochloride] | inactive: -0.581
O=P(O)(O)C(O)(Cn1ccnc1)P(=O)(O)O [Zoledronic acid hydrate] | inactive: -1.03
CCN(CC)CCOCCOC(=O)C1(c2ccccc2)CCCC1 [Carbetapentane citrate] | inactive: 0.489
CCN(CC)C(=O)Nc1ccc(OCC(O)CNC(C)(C)C)c(C(C)=O)c1 (centres undefined) [Celiprolol hydrochloride] | inactive: -0.488
N[C@H]1CONC1=O [(S)-(-)-Cycloserine] | inactive: 0.424
CCCCC1C(=O)N(c2ccccc2)N(c2ccc(O)cc2)C1=O (centres undefined) [Oxyphenbutazone] | inactive: -0.0542
COc1cc2nc(N3CCN(C(=O)C4COc5ccccc5O4)CC3)nc(N)c2cc1OC (centres undefined) [Doxazosin mesylate] | inactive: -0.272
CC(=O)Nc1ccc(OC(=O)c2ccccc2O)cc1 [Acetaminosalol] | inactive: 0.117
CCCOc1ccccc1-c1nc2[nH]nnc2c(=O)[nH]1 [Zaprinast] | inactive: 0.798
CCCCCCNC(=O)n1cc(F)c(=O)[nH]c1=O [Carmofur] | inactive: -0.119
CCC[C@@H]1C[C@@H](C(=O)N[C@@H]([C@H]2O[C@H](SC)[C@H](OP(=O)(O)O)[C@@H](O)[C@H]2O)[C@H](C)Cl)N(C)C1 [Clindamycin Phosphate] | inactive: 0.0741
COc1ccc(Cl)cc1C(=O)NCCc1ccc(S(=O)(=O)NC(=O)NC2CCCCC2)cc1 [Glibenclamide] | inactive: -0.301
Nc1nc(=O)n([C@@H]2CS[C@H](CO)O2)cc1F [(-)-Emtricitabine] | inactive: -0.614
CC#C[C@]1(O)CC[C@H]2[C@@H]3CCC4=CC(=O)CCC4=C3[C@@H](c3ccc(N(C)C)cc3)C[C@@]21C [Mifepristone] | inactive: 0.723
CC(C(O)c1ccc(O)cc1)N1CCC(Cc2ccccc2)CC1 (centres undefined) [Ifenprodil tartrate] | inactive: 0.0496
CC(C)[C@H](N)C(=O)OCCOCn1cnc2c(=O)nc(N)[nH]c21 [Valacyclovir hydrochloride] | inactive: 0.915

Compound | light-induced TopBP1 condensate (z-score)
CN1CCN2c3ncccc3Cc3ccccc3C2C1 (centres undefined) [Mirtazapine] | inactive: -0.78
COC(=O)N/N=C/c1c[n+]([O-])c2ccccc2[n+]1[O-] [Carbadox] | inactive: -0.249
CN(C(=O)CN(CCO)CC(=O)N(C)C(C)(C)Cc1ccccc1)C(C)(C)Cc1ccccc1 [Oxethazaine] | inactive: 0.718
Cc1cc(C)nc(NS(=O)(=O)c2ccc(N)cc2)n1 [Sulfamethazine sodium salt] | inactive: 0.285
COc1cc(NS(=O)(=O)c2ccc(N)cc2)ncn1 [Sulfamonomethoxine] | inactive: 0.424
CC1(C)O[C@@H]2C[C@H]3[C@@H]4C[C@H](F)C5=CC(=O)C=C[C@]5(C)[C@@]4(F)[C@@H](O)C[C@]3(C)[C@]2(C(=O)CO)O1 [Fluocinolone acetonide] | inactive: 0.184
C[C@]12CC[C@@H]3c4ccc(O)cc4C[C@@H](CCCCCCCCC[S+]([O-])CCCC(F)(F)C(F)(F)F)[C@H]3[C@@H]1CC[C@@H]2O (some centres undefined) [Fulvestrant] | inactive: 1.39
O=C(NCCCN1CCOCC1)c1ccc(Cl)cc1 [Eprobemide] | inactive: 0.149
CO/N=C(\C(=O)N[C@@H]1C(=O)N2C(C(=O)O)=C(COC(C)=O)CS[C@H]12)c1csc(N)n1 [Cefotaxime sodium salt] | inactive: 0.889
C/C(=C1\CCOC(=O)S1)N(C=O)Cc1cnc(C)nc1N [Cycotiamine] | inactive: 0.795
CCCCOc1cc(C(=O)OCCN(CC)CC)ccc1N [Benoxinate hydrochloride] | inactive: 0.824
Clc1ccc2nsnc2c1NC1=NCCN1 [Tizanidine hydrochloride] | inactive: -1.1
CC(C)Oc1ccc2c(=O)c(-c3ccccc3)coc2c1 [Ipriflavone] | inactive: -0.431
CC(=O)Nc1nnc(S(N)(=O)=O)s1 [Acetazolamide] | inactive: 0.105
Cc1cc2cc3c(C)cc(=O)oc3c(C)c2o1 [Trioxsalen] | inactive: 0.189
CNCC(O)c1ccc(O)c(O)c1 (centres undefined) [Racepinephrine hydrochloride] | inactive: 0.0602
CCOC1O[C@H]([C@@H](COCc2ccccc2)OCc2ccccc2)[C@H](OCc2ccccc2)[C@H]1O (some centres undefined) [Tribenoside] | inactive: 0.824
CC(=O)Nc1c(I)c(C(=O)N[C@H]2C(O)O[C@H](CO)[C@@H](O)[C@@H]2O)c(I)c(N(C)C(C)=O)c1I (some centres undefined) [Metrizamide] | inactive: -0.12
CCN(CC)CCNC(=O)c1ccc(N)cc1 [Procainamide hydrochloride] | inactive: 0.297
CCCCCCOc1ccccc1C(N)=O [Exalamide] | inactive: -0.0804
C[C@@H]1CCC[C@H](C)N1NC(=O)c1ccc(Cl)c(S(N)(=O)=O)c1 [Clopamide] | inactive: 0.858
CC[C@H]1OC(=O)[C@H](C)[C@@H](O[C@H]2C[C@@](C)(OC)[C@@H](O)[C@H](C)O2)[C@H](C)[C@@H](O[C@@H]2O[C@H](C)C[C@H](N(C)C)[C@H]2O)[C@](C)(O)C[C@@H](C)CN(C)[C@H](C)[C@@H](O)[C@]1(C)O [Azithromycin] | inactive: 0.375
